Out of some 310,000 compounds screened, about 2,200 (0.71%) showed an effect of 50% or more. The effect is printed as a negative number. This is one part of the list.
target: human ether-à-go-go-related gene (hERG) potassium channel (human, UniProt Q12809); assay: primary screen, population patch clamp on CHO cells stably expressing hERG
Sequence (Q12809 whole entry, looked up): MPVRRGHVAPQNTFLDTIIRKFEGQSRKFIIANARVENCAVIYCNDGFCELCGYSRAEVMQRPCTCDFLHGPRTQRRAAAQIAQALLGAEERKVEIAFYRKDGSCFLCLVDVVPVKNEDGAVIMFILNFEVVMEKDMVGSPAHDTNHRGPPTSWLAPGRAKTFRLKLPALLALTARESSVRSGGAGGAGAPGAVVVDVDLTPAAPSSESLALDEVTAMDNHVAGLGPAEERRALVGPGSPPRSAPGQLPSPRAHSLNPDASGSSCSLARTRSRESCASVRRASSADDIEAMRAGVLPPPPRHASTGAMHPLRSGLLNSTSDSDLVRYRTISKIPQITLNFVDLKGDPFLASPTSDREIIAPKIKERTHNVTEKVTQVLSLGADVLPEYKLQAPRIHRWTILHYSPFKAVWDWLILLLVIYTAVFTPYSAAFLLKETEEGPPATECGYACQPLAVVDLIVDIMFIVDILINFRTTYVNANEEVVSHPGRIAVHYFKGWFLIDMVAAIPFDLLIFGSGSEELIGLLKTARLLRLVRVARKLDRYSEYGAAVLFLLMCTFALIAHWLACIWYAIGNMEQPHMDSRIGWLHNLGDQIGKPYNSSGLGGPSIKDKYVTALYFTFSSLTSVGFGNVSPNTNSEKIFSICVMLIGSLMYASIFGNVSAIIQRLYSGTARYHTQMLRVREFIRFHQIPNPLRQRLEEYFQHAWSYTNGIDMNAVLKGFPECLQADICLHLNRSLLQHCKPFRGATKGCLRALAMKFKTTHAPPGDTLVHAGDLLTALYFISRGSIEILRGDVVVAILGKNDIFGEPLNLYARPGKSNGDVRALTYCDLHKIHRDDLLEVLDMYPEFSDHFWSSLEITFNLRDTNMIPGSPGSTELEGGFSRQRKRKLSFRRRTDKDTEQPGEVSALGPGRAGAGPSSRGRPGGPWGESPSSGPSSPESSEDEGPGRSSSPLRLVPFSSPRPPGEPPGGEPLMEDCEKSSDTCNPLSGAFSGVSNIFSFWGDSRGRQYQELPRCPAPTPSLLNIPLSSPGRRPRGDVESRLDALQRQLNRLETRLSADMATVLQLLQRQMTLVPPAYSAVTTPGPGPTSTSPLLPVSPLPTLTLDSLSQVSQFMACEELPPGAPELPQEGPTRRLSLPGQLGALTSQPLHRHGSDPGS

Row | Structure (SMILES) | hERG current change (%, negative = inhibition) at 1uM
1 | COc1ccc(Nc2nc(N)nc(COc3ccc(OC)cc3)n2)cc1 | 2.9%
2 | O=C(CCC(=O)OCC(=O)c1ccc(Br)cc1)Nc1cccc2cccnc12 | 2.44%
3 | O=C(NC1CCCCCC1)C1CCCN(S(=O)(=O)c2cccs2)C1 (stereo not drawn) | 12.9%
4 | CN(C)C(=O)c1c([N+](=O)[O-])ncn1C | 11.4%
5 | COc1ccc(NC(=O)CSc2nccn2Cc2ccc(F)cc2)cc1 | -0.999%
6 | CCOC(=O)C(NC(=O)Nc1ccccc1)(OCC)C(F)(F)F (stereo not drawn) | 7.34%
7 | O=C(COC(=O)c1ccc([N+](=O)[O-])s1)NCCc1ccccc1 | 4.95%
8 | COc1cccc(N2CCN(CC(=O)c3c[nH]c4ccc(OC)cc34)CC2C)c1 (stereo not drawn) | 2.29%
9 | O=C(NC(=O)N1CCSCC1)c1c(Cl)cccc1Cl | 9.76%
10 | O=C(Nc1c2n(c(=S)n(-c3ccccc3)c1=O)CCCCC2)c1ccccc1 | 1.56%
11 | COc1ccc(S(=O)(=O)N(CC(=O)Nc2ccccc2C(=O)N2CCOCC2)c2ccc(F)cc2)cc1 | -11%
12 | CCn1c(SCC(=O)NC2CCCCC2)nnc1-c1ccco1 | 3.82%
13 | CCS(=O)(=O)c1cc([N+](=O)[O-])c(Sc2ccccc2NC(C)=O)s1 | 14.2%
14 | CC(=O)/C(C#N)=C1\NC(=O)C(Cc2ccccc2C)S1 (stereo not drawn) | 11.2%
15 | CCCN1CNC(=S)N(CCc2ccccc2)C1 | 13.2%
16 | Cl.O=C(c1ccco1)N1CCN(C(c2ccccc2F)c2nnnn2CC2CCCO2)CC1 (stereo not drawn) | -7.84%
17 | Cc1ccc(NC(=O)c2sccc2-n2cccc2)c(C)c1 | 11.6%
18 | Cc1ccc2sc(NC(=O)c3ccc(N4C(=O)CCC4=O)cc3)nc2c1C | 18.9%
19 | Cc1ccc(C(=O)N/N=C\c2ccc(-c3ccc([N+](=O)[O-])cc3)o2)cn1 | 12%
20 | Cc1cc(C)nc(NS(=O)(=O)c2ccc(NC(=O)C3CC(=O)N(c4ccccc4)C3)cc2)n1 (stereo not drawn) | 9.9%
21 | O=S(=O)(c1ccccc1)c1nc(Nc2ccccc2N2CCOCC2)sc1Cl | 0.482%
22 | COc1ccc(C(C(=O)NCc2ccccc2)N(Cc2ccco2)C(=O)c2snc(C(N)=O)c2N)cc1OC (stereo not drawn) | 16%
23 | CCCC(=O)Nc1nnc(SCC(=O)N2C(C)CCCC2C)s1 (stereo not drawn) | -11.6%
24 | COc1ccccc1CNC(=O)CNC(=O)c1cn(-c2ccccc2OC)c(=O)c2ccccc12 | -4.01%

From article PMC4336329 (PLoS ONE, 2015)
